PubChem BioAssay AID493208 (National Center for Advancing Translational Sciences (NCATS), 2011)
Among all 44,000 compounds or so, about 340 (0.77%) were called active. Inconclusive results (about 5%) are left out. Calls follow the shape of the dose curve; as a rule, active = well fitted inhibition curve with a large enough effect; inconclusive = small, poorly fitted or top-dose-only effect; inactive = flat fitted curve, though single readings scatter. The list shows a part of the results.

Test: Acumen qHTS Assay for Inhibitors of the mTORC1 Signaling Pathway in MEF (Tsc2-/-, p53-/-) Cells: Sytravon;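 also: plate controls were DMSO for no effect and rapamycin for full effect; nearly all actives have a fitted effect of over 50% in size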
Conditions: phospho-rpS6 immunofluorescence/PI, 24 h; series mostly up to 38.3 µM; activity change, negative = inhibition: at the top concentration
How it was run: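 Readout is phospho-S6 Alexa 488 signal normalized to PI per well, reported as % active cells with thresholds set from rapamycin (7.5 nM) and DMSO controls. Cells: Tsc2-/-, p53-/- MEFs, 24 hrs compound at 37 C; PI cell number serves as viability.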

Activity change, negative = inhibition, inactive:
Cc1ccc(NC(=O)c2oc3c(c2C)-c2[nH]ncc2CC3)c(Cl)c1 -1.83%, Cc1ccc(S(=O)(=O)N(CCc2ccccc2)CC(=O)Nc2ccccc2C)cc1 -7.21%, Cn1cnc(S(=O)(=O)N2CCCC(C(=O)NCc3ccc(F)cc3)C2)c1 (stereo unspecified) 14.3%, COc1ccc(OC)c(-c2noc(N3CCN(c4ccc(Cl)cc4)CC3)n2)c1 -4.85%, Cc1cc(C)cc(NS(=O)(=O)c2ccc3[nH]cc(C(=O)NCCc4ccccc4)c(=O)c3c2)c1 0.436%, CCOc1ccc(NC(=O)C(=O)NCCc2csc(-c3ccc(C(F)(F)F)cc3)n2)cc1 0.279%, Cc1ccc(C(=O)N2CCn3c4c(c5cc(C)ccc53)CCCC42)cc1 (stereo unspecified) -27.8%, COc1ccc(CCNC(=O)c2ccc3c(c2)N(Cc2ccccc2)CCS3)cc1OC -5.77%, CC(C)NC(=O)c1ccc2c(c1)N(Cc1cccc(Cl)c1)C(=O)c1ccccc1S2=O (stereo unspecified) -0.245%, CCc1ccccc1NS(=O)(=O)c1ccc2c(c1)CCCN2C(=O)C1CCC1 -9.46%, Cc1nn2c(=O)cc(COC(=O)c3ccccc3NC(=O)c3cccs3)nc2s1 0%, COc1ccc(NC(=O)CN2CCN(Cc3ccccc3Cl)S2(=O)=O)cc1Cl 2.41%, COC(=O)c1sc2c(c1C)c(=O)n(-c1ccccc1)c(=O)n2CC(=O)Nc1cccc(C)c1 -16%, COc1cc(OC)c(NC(=O)N2CCC(CN3CCOCC3)CC2)cc1Cl -0.174%, CN1CCN(Cc2c(O)ccc3cc(-c4ccc(Cl)cc4)c(=O)oc23)CC1 0%, CCN(C(=O)Cn1c(=O)oc2cc(S(=O)(=O)N3CCCCC3)ccc21)c1ccccc1 0.473%, Cc1c(C)c2cc3c(c(C)c2oc1=O)OCN(CCc1ccccc1)C3 -9.54%, COc1cccc(CNC(=O)c2c(C)oc3ncnc(N4CCOCC4)c23)c1 -2.4%, COc1ccc(N2CCN(C(=O)C3Cc4ccccc4N3C(C)=O)CC2)cc1 (stereo unspecified) 0%, CCOc1cc(CNC(=O)C2CCN(c3nc4ccccc4[nH]3)CC2)cc(OCC)c1OCC 7.69%, COc1cccc(CC(=O)Nc2ccc(-c3nc4ccccc4s3)cc2Cl)c1 -1.53%, Cc1cc(C)cc(N2CCn3c2nc2c3c(=O)n(C/C=C/c3ccccc3)c(=O)n2C)c1 -8.46%, Cc1ccc(C)c(NC(=O)CCOc2ccccc2)c1 -2.42%, Cc1ccc2nc(-c3ccc(F)cc3)c(NC(C)(C)CC(C)(C)C)n2c1 -0.248%, Cc1c(Cl)cccc1NC(=O)CSc1ccc(-c2ccccn2)nn1 0.497%, O=C(NCc1cccc(Cl)c1)c1cc2c(s1)-c1ccccc1SC2 -2.7%, O=C(Cn1c(=O)n(-c2ccc(Cl)cc2)c(=O)c2c3c(sc21)CCCCC3)Nc1cccc(Cl)c1 -8.83%, Cc1ccc2cccc(NC(=O)c3cccc4c(Br)cccc34)c2n1 9.8%, COc1cccc(CNS(=O)(=O)c2ccc3c(c2)CC(C)N3C(=O)C2CCC2)c1 (stereo unspecified) -2.08%, COc1ccc(C)cc1NC(=O)C(=O)NCC(c1cccnc1)N1CCN(c2ccccc2F)CC1 (stereo unspecified) -3.17%, Cc1cc(C)c2nc(N3CCCC(C(=O)NCc4ccccc4F)C3)sc2c1 (stereo unspecified) 0%, CCn1c(=O)n(-c2ccc3c(c2)OCO3)c2nc(-c3cccc(OC)c3OC)nc(C(N)=O)c21 1.24%, CCCn1cc(S(=O)(=O)c2ccc(C)c(C)c2)c(=O)c2cc(F)c(N3CCC(C)CC3)cc21 0.543%, COc1ccc(N2CCN(C(=O)c3ccc4c(c3)N(Cc3cccc(Cl)c3)C(=O)c3ccccc3S4(=O)=O)CC2)cc1 -3.59%, CCc1ccccc1NC(=O)Cn1c(=O)n(-c2cccc(C)c2)c(=O)c2c1c1cc(OC)ccc1n2C -2.08%, CC(C)OCCCNC(=O)Cc1ccc(NC(=O)N2CCCCc3ccccc32)cc1 0.721%, CCOc1ccccc1N(C)C(=O)c1cc2c(s1)-c1ccccc1OC2 -2.02%, CCOC(=O)CC(NC(=O)c1cc2c(=O)n3cccc(C)c3nc2s1)c1ccc(OCC)c(OC)c1 (stereo unspecified) 0.686%, Cc1ccc(NC(=O)Cn2c(=O)n(CC(=O)NCCc3ccccc3)c(=O)c3ccccc32)cc1C 0.394%, CCCCc1nc(SCC(=O)Nc2ccc(S(N)(=O)=O)cc2)n[nH]1 3.48%, COc1cccc(NC(=O)C2CCN(S(=O)(=O)c3c(C)noc3C)CC2)c1 -6.46%, Cc1ccc(C(=O)COC(=O)c2cc(-c3cccs3)nc3ccccc23)cc1 6.13%, CCc1cccc(NC(=O)Nc2cn(C)c(=O)c3ccccc23)c1 0.0361%, Cc1ccc(S(=O)(=O)c2cn(CC(=O)Nc3ccc(F)cc3)c3cc4c(cc3c2=O)OCO4)cc1 -14.1%, COc1ccc(-c2noc(CCC(=O)Nc3cccc(C)c3C)n2)cc1OC 1.52%, Cc1cccc(NC(=O)CSc2nc(=O)n(CCN3CCOCC3)c3c2CCC3)c1C 0.346%, CCCC(=O)NCc1nc2cccnc2n1Cc1ccc(F)cc1 2.4%, Cc1cccc(Cn2nnc3c(=O)[nH]c(C4CCN(C(=O)c5ccccc5F)CC4)nc32)c1 -4.83%, O=C(Nc1cc(-c2nc3ccccc3o2)ccc1Cl)c1cccc2c(Cl)cccc12 2.38%, Cc1ccc(NC(=O)Cn2c(=O)n(Cc3ccc4c(c3)OCO4)c(=O)c3ccc(C(=O)NC4CCCCC4)cc32)cc1 5.32%, CCOC(=O)c1ccc(NC(=O)Cc2coc3cc(C)cc(C)c23)cc1 -10.6%, COc1ccc(S(=O)(=O)NCc2cccn2Cc2cccc(C)c2)cc1OC 0%, CCCCc1nn2c(=O)cc(COC(=O)c3ccccc3NC(=O)C3CCCCC3)nc2s1 1.11%, CCN(C(=O)CSc1nnc(C)n2c1cc1occc12)c1ccccc1 -2.15%, CCOc1ccc(NC(=O)c2cc3c(=O)n4cccc(C)c4nc3s2)cc1 1.24%, Cc1cc([N+](=O)[O-])ccc1NC(=O)CSc1nccn1C -0.561%, O=C(CSc1cn(CC(=O)N2CCOCC2)c2ccccc12)Nc1ccccc1C(F)(F)F -0.834%, COc1ccc(CNC(=O)c2cnc(N3CCCC3)nc2C)cc1 10.1%, CCOC(=O)CSc1nc2c([nH]c3ccccc32)c(=O)n1-c1ccc(OCC)cc1 -5.5%, Cc1ccccc1C(=O)Nc1nc2c(s1)CC(C(C)(C)C)CC2 (stereo unspecified) 0%, COc1ccc(-c2c(C)c3ccc(O)c(CN4CCN(C)CC4)c3oc2=O)cc1OC 4.35%, Cc1cccc2sc(N(Cc3cccnc3)C(=O)C3CCCCC3)nc12 -3.79%, COc1ccc(S(=O)(=O)c2cn(CC(=O)Nc3ccccc3)c3ccc(Cl)cc3c2=O)cc1 -11.2%, COc1ccc(CSc2nc3ccncc3n2Cc2nc(-c3ccc(OC)c(OC)c3)oc2C)cc1 -4.72%, COc1ccccc1CNC(=O)Nc1ccc2c(c1)N(C)C(=O)c1ccccc1S2 -23.6%, O=C(CSc1nc2c([nH]c3ccccc32)c(=O)n1-c1ccc(F)cc1)N1CCCCCC1 -15.2%, Clc1cccc(-c2noc3ncnc(NC4CCCCC4)c23)c1 -13.3%, COc1ccc(Br)cc1CNC(=O)CCC(=O)N1CCSc2ccccc21 -3.37%, COc1cc(NC(=O)CCc2c(C)nc3c(c(C)nn3-c3ccccc3)c2C)cc(OC)c1OC 3.13%, CN1C(=O)C2CCCCN2c2ccc(C(=O)NCc3ccccc3Br)cc21 (stereo unspecified) -1.52%, COc1cccc2cc(-c3nc(-c4cccs4)no3)c(=O)oc12 -21.4%, CCOC(=O)c1c(C)c(C(=O)NCCc2ccc(OC)cc2)c(C)n1CC -0.162%, Cc1ccc(NS(=O)(=O)c2c(C(=O)N3CCCCCC3)c(C)n(C)c2C)cc1F 0%, CC(=O)c1c(C)n(-c2cccc(C)c2)c2ccc(OC(=O)COc3ccccc3)cc12 -0.375%, COc1cccc(-c2cc(C(=O)NCCc3ccc(C)cc3)[nH]n2)c1 -9.48%, O=C(Nc1ccc(Br)cc1)c1ccc(Br)c(S(=O)(=O)NCc2ccccc2)c1 -19.4%, CCOc1ccc(CNC(=O)Cn2nc(C)c3sc4ccccc4c3c2=O)cc1 -5.34%, COc1ccc(C)cc1NC(=O)CN1C(=O)CCc2cc(S(=O)(=O)N3CCOCC3)ccc21 0%, CCc1nn(CC(=O)Nc2c(C)cc(C)cc2C)c(=O)c2cc3sccc3n12 -10.1%, Cc1ccc(N(C)S(=O)(=O)c2ccc3[nH]cc(C(=O)O)c(=O)c3c2)cc1C -1.55%, Cc1ccc(C(c2sc3nc(-c4ccco4)nn3c2O)N2CCCCC2)cc1 (stereo unspecified) -0.554%, CC(=O)c1ccc(NC(=O)CSc2nc(-c3ccccc3F)nc3c2c(=O)n(C)c(=O)n3C)cc1 8.16%, CCOC(=O)c1c(-c2ccc(C)cc2)csc1NC(=O)c1cc(=O)c2cc(C)c(C)cc2o1 1.12%, CC1Cc2cc(S(=O)(=O)NCc3ccc(F)cc3)ccc2N1C(=O)C1CCC1 (stereo unspecified) -8.34%, Cc1ccc(NC(=O)C2CCN(c3nc4ccccc4[nH]3)CC2)cc1Cl 9.21%, O=C(NCc1cccs1)c1ccc(CSc2nc3ccncc3n2Cc2cccc(F)c2)cc1 1.33%, O=C(NC1(C(F)(F)F)NC(=O)N(CCc2ccccc2)C1=O)c1ccccc1F (stereo unspecified) -6.14%, Cc1ccc(NC(=O)CCc2c(C)nn(-c3ccc(N4CCCCC4)nn3)c2C)cc1F -14.3%, COc1cccc(CSc2nc3cc(OC)c(OC)cc3c3nc(CCn4nc(C)cc4C)nn23)c1 -0.352%, CCOc1ccc2nc(N(Cc3cccnc3)C(=O)c3ccc4c(c3)OCCO4)sc2c1 1.72%, COC(=O)c1cc2sc(C)cc2n1Cc1ccc(F)cc1Cl 0.247%, COC(=O)c1c(C)oc2c1cc(NS(=O)(=O)c1c(C)cc(C)cc1C)c1ccccc12 0.11%, O=S(=O)(c1ccc(Cl)cc1)c1nc(-c2ccccc2Br)oc1N1CCOCC1 11.1%, Cn1c(=O)c2c(nc(NCCc3ccccc3)n2Cc2cccc(Br)c2)n(C)c1=O 4.16%, O=c1n(Cc2ccc(F)cc2Cl)c2ccccc2c2nc(-c3ccccc3)nn12 3.19%, COc1ccc2c(c1)CCc1c(C(=O)Nc3c(C)nn(Cc4ccccc4Cl)c3C)noc1-2 -3.35%
